Measured values reported in PubChem BioAssay AID504466 (National Center for Advancing Translational Sciences (NCATS), 2011).
The campaign covered roughly 330,000 compounds. About 4,200 (1.3%) were called active. The inconclusive results got no clear call from the source; some entries with a clear call stand among them for comparison. The call rests on the fitted dose curve; in most records, active means well fitted activation curve with a large enough effect; inconclusive means small, poorly fitted or top-dose-only effect; inactive means no such curve, though single readings can be large or run the other way. A potency beside an inconclusive call is a rough fit, not a confirmed value.

Assay: qHTS screen for small molecules that induce genotoxicity in human embryonic kidney (HEK293T) cells expressing luciferase-tagged ELG1; further: nearly all actives have a fitted effect of over 60% in size; on activity change, positive = activation: % of control where 0% means no effect
Details: HEK293T ELG1-luciferase reporter, luminescence, 16 h; series mostly up to 46 µM; activity change, positive = activation: at the top concentration
Method in brief: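 Quantitative HTS format in 1536-well plates. HEK293T ELG1-luciferase reporter cells receive test compound and are incubated 16 hr at 37 °C, 5% CO2; ONE-Glo added, 30 min room temperature, then luminescence read.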
Potency means the concentration at half of the fitted maximal effect; tags describe the fitted curve by direction and shape.

Row | SMILES | Potency | activity change, positive = activation
1 | CCn1cnc2cc(NCc3ccc(Br)cc3)ccc21 | inconclusive: 7.3 µM [activator, partial curve, poor fit] | –
2 | Cc1ccc2[nH]c3c(c2c1)SC(C)(C)CC3=O | – | inactive: -4.26%
3 | O=C(CNCc1ccccc1)Nc1ccc(Cl)cc1 | – | inactive: 17.4%
4 | Cc1cccn2c(=O)c3cc(C(=O)NCCN4CCOCC4)n(C)c3nc12 | inconclusive: 29.1 µM [activator, single point] | –
5 | Fc1ccc(N2CCN(c3ncnc4nc[nH]c34)CC2)cc1 | inconclusive: 20.6 µM [activator, partial curve, poor fit] | –
6 | Cc1ccc(NC(=O)CSCc2ccco2)cc1 | inconclusive: 10.3 µM [activator, partial curve] | –
7 | CC(O)CN1CC(O)=C(c2nc3ccccc3s2)C1=N (stereo not drawn) | inconclusive: 29.1 µM [activator, single point] | –
8 | COc1cc(NC(=O)c2cc3nc(C)cc(C)n3n2)c(OC)cc1Cl | inconclusive: 4.61 µM [activator, partial curve, poor fit] | –
9 | Brc1cccc(-c2nc(-c3ccncc3)no2)c1 | inconclusive: 11.6 µM [activator, partial curve] | –
10 | Cc1cc(-c2nnc(CCC(=O)NC(c3ccccc3)c3ccccc3)o2)no1 | inconclusive: 13 µM [activator, partial curve, poor fit] | –
11 | O=C(Nc1cccc(F)c1)N1CCC(c2ccccc2)CC1 | inconclusive: 25.9 µM [activator, partial curve, poor fit] | –
12 | CC(=O)Nc1ccc(NC(=O)c2ccc(-n3c(C)ccc3C)cc2)cc1 | inconclusive: 32.6 µM [activator, partial curve, poor fit] | –
13 | O=C(NC1CCCCCC1)c1ccc(Br)o1 | – | inactive: 7.92%
14 | N/C(=N\OC(=O)C1CCCCC1)c1cccc(Br)c1 | – | inactive: 2.59%
15 | Cc1cc(C)c(C)c(S(=O)(=O)NCCN2CCOCC2)c1C | – | inactive: 1.1%
16 | CC(OC(=O)c1ccc(F)cc1)C(=O)Nc1nc(-c2cccc([N+](=O)[O-])c2)cs1 (stereo not drawn) | – | inactive: -1.76%
17 | CCCN1CCN(c2ncnc3c2nnn3Cc2ccccc2)CC1 | – | inactive: 5.53%
18 | COc1cc(Cl)c(CNC[C@H]2O[C@@H](n3cnc4c(N)ncnc43)[C@H](O)[C@@H]2O)c(Cl)c1O | – | inactive: -2.86%
19 | CCOC(=O)c1c(C)[nH]c(C(=O)COC(=O)COc2ccccc2C=O)c1C | – | inactive: 7.47%
20 | CCn1c2ccccc2c2cc(NC(=O)N3CCOCC3)ccc21 | inconclusive: 18.4 µM [activator, partial curve, poor fit] | –
21 | CCOC(=O)c1c(C)c(C(=O)NCCc2ccccc2)c(C)n1C | inconclusive: 20.6 µM [activator, single point] | –
22 | C#CC(=O)N(c1cccc(OC)c1)C(C(=O)NC1CCCC1)c1cccs1 (stereo not drawn) | – | inactive: 6.31%
23 | CS(=O)(=O)c1ccc2nc(NC(=O)c3ccccc3)sc2c1 | inconclusive: 2.91 µM [activator, partial curve] | –
24 | Cc1cccc(NS(=O)(=O)c2ccc(C)c(C(=O)NCc3cccnc3)c2)c1 | – | inactive: -1.11%

Row | SMILES | Potency | activity change, positive = activation
25 | Cn1c(=O)cc(OCCCC(=O)NCCN2CCN(c3ccccc3F)CC2)c2ccccc21 | inconclusive: 16.4 µM [activator, single point] | –
26 | O=C(CNS(=O)(=O)c1ccc2ccccc2c1)OCc1nnc(-c2ccccc2)o1 | inconclusive: 23.1 µM [activator, single point] | –
27 | CCOc1ccc(NCc2nc3ccccc3n2CCOc2ccccc2)cc1 | inconclusive: 25.9 µM [activator, single point] | –
28 | COc1cccc(-c2ccc3c(N)c(C(=O)NC4CC4)sc3n2)c1 | inconclusive: 14.6 µM [activator, partial curve] | –
29 | CCN(CC)CCCNC(=O)CSc1nc(C)cc(C)n1 | – | inactive: 2.34%
30 | O=C(COC(=O)c1ccccc1-n1cnnn1)c1ccccc1 | – | inactive: 11.1%
31 | COCn1c(-c2ccc(OC)c(OC)c2)nc2ccccc21 | inconclusive: 13 µM [activator, partial curve] | –
32 | O=[N+]([O-])c1cc(CN(CCO)CCO)ccc1O | – | inactive: -0.972%
33 | Cc1csc(NC(=O)c2ccc3ccccc3n2)n1 | inconclusive: 2.31 µM [activator, full curve] | –
34 | CC(=O)Nc1ccc(-c2nc3cc(Cl)ccc3o2)cc1 | active: 2.06 µM | –
35 | FC(F)(F)c1ccc(NCc2ccccn2)nc1 | inconclusive: 16.4 µM [activator, partial curve] | –
36 | COCc1cc(C)nc2sc(C(=O)OC(C)C)c(N)c12 | inconclusive: 20.6 µM [activator, partial curve, poor fit] | –
37 | Cc1cc(C(=O)COC(=O)c2ccccc2Br)c(C)n1CC1CCCO1 (stereo not drawn) | inconclusive: 0.164 µM [activator, full curve] | –
38 | O=S(=O)(c1ccccc1C(F)(F)F)N1CCC(n2cnc3ccccc32)CC1 | – | inactive: -8.84%
39 | CCOC(=O)C1=C(N)OC2=C(C(=O)CC(C)(C)C2)C1c1ccco1 (stereo not drawn) | inconclusive: 17.8 µM [activator, single point] | –
40 | COc1ccccc1NC(=O)Cc1noc(CSc2nnc(C)n2C)n1 | – | inactive: 0.242%
41 | O=C(CSc1nnc(SCc2ccc(Cl)cc2)s1)N/N=C/c1ccc(C(=O)O)cc1 | – | inactive: 1.67%
42 | O=C(NCC#CCSc1nnc(-c2cccc3ccccc23)o1)c1cccs1 | – | inactive: -0.584%
43 | Cc1cc(NC(=O)c2cccs2)ncc1NC(=O)C(C)(C)C | active: 4.11 µM | –
44 | CCOCCCn1c(SCC(=O)NC(C)(C)C)nc2ccccc2c1=O | inconclusive: 20.6 µM [activator, single point] | –
45 | COc1cc(/C=C2/C(=O)ON=C2C)ccc1OCc1ccccc1F | inconclusive: 23.1 µM [activator, single point] | –
46 | CCOC(=O)c1cnc(SCC(=O)c2ccc(Cl)cc2)nc1N | inconclusive: 18.4 µM [activator, partial curve, poor fit] | –
47 | O=C(O)COC(=O)C1C(c2ccccc2)C(C(=O)O)C1c1ccccc1 (stereo not drawn) | – | inactive: -0.516%
48 | Cc1ccc(-c2nc(N/N=C/c3ccncc3)c3ccccc3n2)cc1 | inconclusive: 0.141 µM [activator, full curve, poor fit] | –
